# Results reported in PubChem BioAssay AID686979 (National Center for Advancing Translational Sciences (NCATS), 2013).
# “And” between values parts separate entries of the source, which are not always exact repeats. Equal values may be shown once. In all, about 420,000 compounds went through this assay and about 50,000 (12%) were called active. Inconclusive results, whose numbers are uncertain, are shown with a selection of clear calls. Calls follow the shape of the dose curve; as a rule, active = well fitted inhibition curve with a large enough effect; inconclusive = small, poorly fitted or top-dose-only effect; inactive = flat fitted curve, though single readings scatter. Potencies beside an inconclusive call are fits to weak or partial responses and may not hold up.
# Test: qHTS for Inhibitors of human tyrosyl-DNA phosphodiesterase 1 (TDP1): qHTS in cells in presence of CPT; also: nearly all actives have a fitted effect of over 55% in size
# Conditions: chicken DT40 Tdp1-/-;hTDP1 cells + 20 nM CPT, ATP luminescence, 48 h; activity change, negative = growth inhibition: at 46.2 µM (top of the series)
# Method in brief: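 Chicken DT40 Tdp1-/- cells stably complemented with human TDP1 were seeded at 400 cells/well in medium containing 20 nM camptothecin, exposed to pin-transferred compounds, and grown at 37 °C for at least 48 hr. Viability was read as ATP luminescence.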
# % is scaled to controls: 0 for no effect and ±100 for the full control effect; potency is read from the fitted curve at half-maximal effect; tags tell the direction and shape of the fitted curve.
SMILES,Potency,"activity change, negative = growth inhibition"
CCOCCc1nnc(NC(=O)CS(=O)(=O)Cc2ccccc2)s1,inactive,
COc1ccccc1CCNC(=O)C1CCC(=O)N(Cc2cccc(F)c2)C1 (stereo unspecified),"inconclusive: 20.6 µM [inhibitor, single point]",
CC(=O)N1CCN(c2ccccc2NC(=O)COc2cc(C)ccc2C(C)C)CC1,"inconclusive: 11.6 µM [inhibitor, partial curve]",
CC1OC23CCCCC2C(C#N)(C(=N)O3)C1(C#N)C#N (stereo unspecified),"inconclusive: 29.1 µM [inhibitor, single point]",
COc1cc(CO)ccc1OCc1ccc(Cl)nc1,inactive,
COc1cccc(-c2cnc3c(NC=O)cc(-c4cc(C)c(O)c(C)c4)cn23)c1,active: 3.66 µM,
CC[C@]12c3[nH]c4ccccc4c3CCN1C(=O)C(CC(=O)NCc1cccc(C(F)(F)F)c1)C[C@@H]2C(=O)N1CCN(C(=O)C2CC2)CC1 (stereo partly specified),"inconclusive: 20.6 µM [inhibitor, single point]",
CCCCCCCCCCCCCCCCCCOP(=O)([O-])OC1CC[N+](C)(C)CC1,inactive,
COc1ccccc1-c1csc(C(NC(C)=O)c2ccc(F)c(F)c2)n1 (stereo unspecified),"inconclusive: 25.9 µM [inhibitor, partial curve]",
Cc1ccc2nc(SCc3nc(-c4ccc(Cl)cc4)no3)[nH]c2c1,active: 16.4 µM,
CC(C)(C)NC(=O)NC12CC3CC(CC(C3)C1)C2,inactive,
CC(=O)Nc1ccccc1-c1nc2ccccc2n(CC(=O)Nc2cccc(C)c2C)c1=O,inactive,
O=C(CN1CCC(n2nnc3cc(C(F)(F)F)ccc32)CC1)N1CCc2ccccc21,active: 13 µM,
COc1ccc(-c2n[nH]nc2C2=CC(=O)CC(C)(C)C2)cc1,"inconclusive: 29.1 µM [inhibitor, single point]",
CN(Cc1cccc(Cl)c1Cl)C(=O)c1ccccc1SCC(=O)N1CCCC1,active: 11.6 µM,
Cc1cc(C)cc(N2C(=O)CSC23C(=O)N(Cc2c(F)cccc2Cl)c2ccccc23)c1 (stereo unspecified),active: 16.4 µM,
CCCC(C(=O)Nc1ccc2c(C)cc(=O)oc2c1)c1ccccc1 (stereo unspecified),active: 25.9 µM,
COCCN(Cc1ccccc1)C(=O)c1ccc(C(=O)c2ccccc2)cc1,"inconclusive: 18.4 µM [inhibitor, single point]",
N#Cc1ccc(C(=O)NC2CCCCCCC2)cc1,inactive,
O=C(/C=C/c1cccnc1)c1ccc(O)cc1,"inconclusive: 29.1 µM [inhibitor, single point]",
O=C(Nc1cccc(F)c1)NC1CCCc2ccccc21 (stereo unspecified),"inconclusive: 13 µM [inhibitor, partial curve]",
CCc1ccc(CN(C)CC(=O)Nc2sccc2C#N)cc1,,inconclusive: -30.7% [inhibitor]
CCOC(=O)N1CCN(C(=O)CN(Cc2ccccc2)S(C)(=O)=O)CC1,,inconclusive: -17.9% [inhibitor]
O=C(CN1CCN(c2ccccc2O)CC1)Nc1cc(S(=O)(=O)N2CCCC2)ccc1Cl,active: 16.4 µM,

SMILES,Potency,"activity change, negative = growth inhibition"
NC(=O)C1=C[C@@H](c2csc3ccccc23)C[C@@H](OCc2ccc(CO)cc2)O1,active: 25.9 µM,
Fc1ccccc1CN1CCCN(C(=S)Nc2cccc(Cl)c2)C1,"inconclusive: 29.1 µM [inhibitor, single point]",
Cc1ccc(NS(=O)(=O)c2ccc(NC(=O)CN(c3cc([N+](=O)[O-])ccc3C)S(C)(=O)=O)cc2)c(C)c1,"inconclusive: 29.1 µM [inhibitor, single point]",
O=C(c1ccc(CS(=O)(=O)c2ccccc2)o1)N1CCOCC1,inactive,
S=C(NCc1ccccc1)NC1CCCc2ccccc21 (stereo unspecified),"inconclusive: 29.1 µM [inhibitor, single point]",
Cc1ccccc1NC(=O)COC(=O)c1ccc(C)c(S(=O)(=O)N2CCCCC2)c1,"inconclusive: 29.1 µM [inhibitor, single point]",
CCOC(=O)CSc1nc2c(c(=O)[nH]c(=O)n2C)n1C/C=C(/C)Cl,inactive,
C/C(=N\N=c1/scc(C)n1Cc1ccco1)c1cccc([N+](=O)[O-])c1,"inconclusive: 16.4 µM [inhibitor, single point]",
COC(=O)C[C@H]1CC[C@@H](NC(=O)C2CC2)[C@@H](CO)O1,inactive,
CC(=O)Oc1ccc2cc(-c3nc4c(s3)CCc3ccccc3-4)c(=O)oc2c1,"inconclusive: 28.2 µM [inhibitor, single point]",
COc1ccc(C2CC(=O)N(Cc3ccc(C)cc3)c3c2c(C)nn3-c2nc(C)cc(C)n2)c(OC)c1 (stereo unspecified),,inconclusive: -40% [inhibitor]
CCOc1ccc(C(=O)CCC(=O)Nc2ccncc2)cc1,"inconclusive: 29.1 µM [inhibitor, single point]",
CC1(C(=O)NCc2ccccc2)CN(S(C)(=O)=O)CC(=O)N1C1CC1 (stereo unspecified),inactive,
Cc1cc(C)c2nc(N3C(=O)C(O)=C(C(=O)c4ccco4)C3c3ccco3)sc2c1 (stereo unspecified),"inconclusive: 18.4 µM [inhibitor, single point]",
Cc1ccc(OCc2nc(-c3ccccc3)no2)cc1,"inconclusive: 29.1 µM [inhibitor, single point]",
Cc1cccc2nc(-c3ccccn3)c(Nc3ccc(F)cc3)n12,active: 11.6 µM,
CC(=O)N1c2ccc(S(=O)(=O)NCCC(=O)Nc3ccc(C)c(Cl)c3)cc2CC1C (stereo unspecified),active: 14.6 µM,
Cc1cc(C)n(-c2ccc(C(=O)Nc3ccccn3)cc2)n1,,inconclusive: -39.6% [inhibitor]
Cc1noc(C)c1NC(=O)N(C)C[C@H]1OCCCC[C@@H](C)Oc2ccc(NC(=O)Nc3ccc(F)cc3)cc2C(=O)N([C@@H](C)CO)C[C@H]1C,"inconclusive: 29.1 µM [inhibitor, single point]",
Cc1cccc(CSc2nc3c([nH]c4ccccc43)c(=O)n2C)c1,"inconclusive: 18.4 µM [inhibitor, single point]",
COc1cc(OC)c(OC)cc1CNCc1ccco1,inactive,
O=C(Nc1ccc(S(=O)(=O)N2CCOCC2)cc1)c1ccc(CN2CCc3ccccc3C2)cc1,active: 1.16 µM,
Clc1ccc(-c2nc(-c3cc4cc(Cl)ccc4o3)cs2)cc1,inactive,
Cc1cccc(N2C(=O)Cc3ccccc3C2=O)c1,"inconclusive: 16.4 µM [inhibitor, partial curve]",

SMILES,Potency,"activity change, negative = growth inhibition"
CCCCC(CC)CNC(=O)Cc1ccc(-n2c(=O)[nH]c3ccccc3c2=O)cc1 (stereo unspecified),"inconclusive: 20.6 µM [inhibitor, single point]",
CCCCC12CN3CC(C)(CN(C1)C3c1c[nH]c3ccccc13)C2=O (stereo unspecified),"inconclusive: 23.1 µM [inhibitor, single point]",
O=c1[nH]n(Cc2ccccc2)c(=O)c2ccccc12,"inconclusive: 11.2 µM [inhibitor, partial curve]",
O=C1CC(N2CCC(O)(c3ccc(Cl)cc3)CC2)C(=O)N1Cc1ccc(N2CCCC2=O)cc1 (stereo unspecified),"inconclusive: 20.6 µM [inhibitor, single point]",
COc1ccc(N2CCN(S(=O)(=O)c3ccc(-c4coc(C)n4)cc3)CC2)cc1,"inconclusive: 20.6 µM [inhibitor, partial curve]",
CC(=O)N1c2ccc(S(=O)(=O)Nc3ccc(C)c(Cl)c3)cc2CC1C (stereo unspecified),"inconclusive: 18.4 µM [inhibitor, partial curve]",
COc1ccccc1-c1cc(C(F)(F)F)nc(N2CCCCC2)n1,inactive,
CSC(=S)N/N=C(\C)c1ccc(Br)cc1,"inconclusive: 3.26 µM [inhibitor, partial curve, poor fit]",
CCc1cccc(NC(=O)Cn2c3[n+](c4ccc(C(F)(F)F)cc42)CCCCC3)c1,"inconclusive: 23.1 µM [inhibitor, single point]",
O=C(Cn1ccc2cc(S(=O)(=O)N3CCCC3)ccc21)NCc1ccco1,inactive,
CC1CCCN(c2nc3c(c(=O)[nH]c(=O)n3C)n2CCCc2ccccc2)C1 (stereo unspecified),"inconclusive: 25.9 µM [inhibitor, single point]",
COc1ccc(-c2cn3cccnc3n2)cc1NC(=O)c1cc(OC)c(OC)c(OC)c1,inactive,
O=C(CNC1CCCCC1)Nc1cccc(C(F)(F)F)c1,inactive,
O=C(c1cccc(F)c1)N1CCN(c2ccc([N+](=O)[O-])c(N3CCCCC3)c2)CC1,"inconclusive: 23.1 µM [inhibitor, single point]",
CCc1nnc(NC(=O)c2ccc(COc3cccc(C)c3)o2)s1,inactive,
CCc1cc2c(cc3c(=O)n(CCCC(=O)NCc4cccc(Br)c4)ncn32)s1,"inconclusive: 29.1 µM [inhibitor, single point]",
CCOC(=O)C1=C(C)NC(C)=C(C(=O)OCC)C1C(=O)OCC(=O)NC(C)C,"inconclusive: 13 µM [inhibitor, partial curve]",
Cc1c(CCNC(=O)c2ccc(C(C)(C)C)cc2)sc2nc(-c3ccc(F)cc3)nn12,active: 14.6 µM,
CCC(=O)Oc1ccc(C(=O)Nc2ccc3c(c2)OCO3)cc1,"inconclusive: 9.2 µM [inhibitor, partial curve]",
Cc1ccc(C(=O)Nc2cccc(C(F)(F)F)c2)cc1NC(=O)c1ccno1,"inconclusive: 16.4 µM [inhibitor, single point] and inconclusive: 10.3 µM [inhibitor, partial curve]",
O=C(c1ccccc1SCc1ccccc1)N1CCOCC1,"inconclusive: 29.1 µM [inhibitor, single point]",
COC(=O)c1ccc(Nc2ncnc3sccc23)cc1,inactive,
CNS(=O)(=O)c1cn(CC(=O)N2CCN(c3ccc(C(C)=O)cc3)CC2)cc1S(=O)(=O)NC,inactive,
